# The list shows a part of the results.
# Tests used:
# [1] = tested on: HSkMC (human skeletal muscle cells); experiment: cytotoxicity call (relative viability < 0.9); details: 10 µM
# [2] = tested on: HepG2; experiment: cytotoxicity call (relative viability < 0.9); details: 10 µM
# [3] = tested on: S. aureus RN4220; experiment: growth inhibition call (relative growth <= 0.2); details: 50 µM
Compound,cytotoxicity call [1],cytotoxicity call [2],growth inhibition call [3]
C[C@@H]1CN([C@@H](C)CO)C(=O)c2cc(NC(=O)Nc3ccc4c(c3)OCO4)ccc2O[C@H]1CN(C)C(=O)Nc1ccc(C(F)(F)F)cc1,inactive,inactive,inactive
C[C@@H]1CN([C@H](C)CO)C(=O)Cc2cc(NC(=O)Nc3ccc4c(c3)OCO4)ccc2O[C@@H]1CN(C)C(=O)Nc1cccc2ccccc12,inactive,inactive,inactive
COc1cccc(c1)CN1C[C@]2(CCN(CC2)S(=O)(=O)C)c2c(n(c3cc(ccc23)OC)C)[C@H]1CO,inactive,inactive,inactive
Cc1ccc(Sc2c(-c3ccccc3)nc3sccn23)cc1,inactive,inactive,inactive
C[C@@H]1CCCCO[C@H](CN(C)C(=O)Nc2ccc3c(c2)OCO3)[C@H](C)CN([C@@H](C)CO)C(=O)c2cc(NC(=O)C3CCCCC3)ccc2O1,inactive,inactive,inactive
Cc1noc(C)c1NC(=O)Nc1ccc2c(c1)C(=O)N([C@H](C)CO)C[C@@H](C)[C@@H](CN(C)S(=O)(=O)c1ccccc1)OCCCC[C@@H](C)O2,inactive,inactive,inactive
C[C@@H]1CN([C@H](C)CO)C(=O)c2cc(NS(=O)(=O)c3ccccc3)ccc2O[C@@H](C)CCCCO[C@H]1CN(C)Cc1ccc(C(F)(F)F)cc1,inactive,active,inactive
O=C1Nc2ccccc2O[C@@H]1CCO,inactive,inactive,inactive
COCC(=O)Nc1ccc2c(c1)OC[C@H](C)N(Cc1cccc(F)c1)C[C@H](C)[C@H](OC)CN(C)C2=O,inactive,inactive,inactive
Cc1noc(C)c1NC(=O)N(C)C[C@@H]1Oc2ccc(NS(C)(=O)=O)cc2CC(=O)N([C@H](C)CO)C[C@@H]1C,inactive,inactive,inactive
C[C@@H]1CCCCO[C@H](CN(C)Cc2ccc(C(F)(F)F)cc2)[C@H](C)CN([C@H](C)CO)C(=O)c2cc(NS(=O)(=O)c3ccccc3)ccc2O1,inactive,inactive,inactive
COc1ccccc1CNC(=O)C[C@H]1C[C@H]2c3cc(NS(=O)(=O)c4ccc(F)cc4)ccc3O[C@H]2[C@H](CO)O1,inactive,inactive,inactive
C[C@H](CO)N1C[C@H](C)[C@@H](CN(C)Cc2ccc(-c3ccccc3)cc2)Oc2ccc(NS(=O)(=O)c3cccs3)cc2CC1=O,inactive,inactive,inactive
C[C@H]1CCCCO[C@H](CN(C)C(=O)Cc2ccccc2)[C@@H](C)CN([C@@H](C)CO)C(=O)c2cc(NC(=O)Cc3ccccc3)ccc2O1,inactive,inactive,inactive
COc1ccc(S(=O)(=O)N(C)C[C@H]2Oc3ccc(NS(C)(=O)=O)cc3CC(=O)N([C@@H](C)CO)C[C@H]2C)cc1,inactive,inactive,inactive
CC(C)NNC(=O)c1ccncc1,inactive,inactive,inactive
COCC#Cc1ccc2c(c1)O[C@@H](CN(C)C(=O)CN(C)C)[C@H](C)CN([C@@H](C)CO)S2(=O)=O,inactive,inactive,inactive
C=CC(=O)Nc1cccc([C@@H](CCc2ccc(OC)c(OC)c2)OC(=O)[C@@H]2CCCCN2C(=O)C(=O)C(C)(C)CC)c1,inactive,inactive,inactive
Cc1noc(C)c1NC(=O)N(C)C[C@H]1Oc2c(NS(=O)(=O)c3cn(C)cn3)cccc2C(=O)N([C@H](C)CO)C[C@@H]1C,inactive,inactive,inactive
Cc1ccc(-c2noc([C@H](C)c3ccc(CC(C)C)cc3)n2)cc1,inactive,inactive,inactive
OCc1ccccc1O[C@@H]1O[C@H](CO)[C@@H](O)[C@H](O)[C@H]1O,inactive,inactive,inactive
C[C@H]1CN([C@@H](C)CO)C(=O)Cc2cc(NC(=O)Nc3ccc(C(F)(F)F)cc3)ccc2O[C@@H]1CN(C)C(=O)Nc1cccc2ccccc12,inactive,inactive,inactive
C[C@@H]1CN([C@@H](C)CO)C(=O)c2cc(NS(=O)(=O)c3ccccc3)ccc2O[C@@H](C)CCCCO[C@@H]1CN(C)C(=O)c1ccccc1,inactive,inactive,inactive
CCc1nc2ccccc2nc1CC,inactive,inactive,inactive
CCc1c(O)nc2ccccn2c1=O,inactive,inactive,inactive
O=C(C[C@@H]1C=C[C@@H](NC(=O)CN2CCOCC2)[C@@H](CO)O1)NC1CCC1,inactive,inactive,inactive
O=c1c2cc(O)c(O)cc2oc2cc(O)c(C3OC(CO)C(O)C(O)C3O)c(O)c12 (stereo unspecified),inactive,inactive,inactive
